Measured values taken from PubChem BioAssay AID720708 (National Center for Advancing Translational Sciences (NCATS), 2013).
About 660 (0.18%) of roughly 360,000 compounds were called active. This list was built around the results that the source calls inconclusive (neither active nor inactive); the mix of calls is not that of the screen. The call rests on the fitted dose curve; in most records, active means well fitted inhibition curve with a large enough effect; inconclusive means small, poorly fitted or top-dose-only effect; inactive means no such curve, though single readings can be large or run the other way. Potencies of inconclusive entries are left out as doubtful fits.

target: Rap guanine nucleotide exchange factor 4 (Homo sapiens) (UniProt Q8WZA2); assay: qHTS for Antagonist of cAMP-regulated guanine nucleotide exchange factor 2 (EPAC2): primary screen; settings: EPAC2 GEF exchange of Rap1B-BODIPY-GDP, fluorescence; series mostly up to 114 µM; further: nearly all actives have a fitted effect of over 45% in size
Potency means the concentration at half of the fitted maximal effect; tags describe the fitted curve by direction and shape.

Sequence of UniProt Q8WZA2 (Q8WZA2 whole entry, looked up): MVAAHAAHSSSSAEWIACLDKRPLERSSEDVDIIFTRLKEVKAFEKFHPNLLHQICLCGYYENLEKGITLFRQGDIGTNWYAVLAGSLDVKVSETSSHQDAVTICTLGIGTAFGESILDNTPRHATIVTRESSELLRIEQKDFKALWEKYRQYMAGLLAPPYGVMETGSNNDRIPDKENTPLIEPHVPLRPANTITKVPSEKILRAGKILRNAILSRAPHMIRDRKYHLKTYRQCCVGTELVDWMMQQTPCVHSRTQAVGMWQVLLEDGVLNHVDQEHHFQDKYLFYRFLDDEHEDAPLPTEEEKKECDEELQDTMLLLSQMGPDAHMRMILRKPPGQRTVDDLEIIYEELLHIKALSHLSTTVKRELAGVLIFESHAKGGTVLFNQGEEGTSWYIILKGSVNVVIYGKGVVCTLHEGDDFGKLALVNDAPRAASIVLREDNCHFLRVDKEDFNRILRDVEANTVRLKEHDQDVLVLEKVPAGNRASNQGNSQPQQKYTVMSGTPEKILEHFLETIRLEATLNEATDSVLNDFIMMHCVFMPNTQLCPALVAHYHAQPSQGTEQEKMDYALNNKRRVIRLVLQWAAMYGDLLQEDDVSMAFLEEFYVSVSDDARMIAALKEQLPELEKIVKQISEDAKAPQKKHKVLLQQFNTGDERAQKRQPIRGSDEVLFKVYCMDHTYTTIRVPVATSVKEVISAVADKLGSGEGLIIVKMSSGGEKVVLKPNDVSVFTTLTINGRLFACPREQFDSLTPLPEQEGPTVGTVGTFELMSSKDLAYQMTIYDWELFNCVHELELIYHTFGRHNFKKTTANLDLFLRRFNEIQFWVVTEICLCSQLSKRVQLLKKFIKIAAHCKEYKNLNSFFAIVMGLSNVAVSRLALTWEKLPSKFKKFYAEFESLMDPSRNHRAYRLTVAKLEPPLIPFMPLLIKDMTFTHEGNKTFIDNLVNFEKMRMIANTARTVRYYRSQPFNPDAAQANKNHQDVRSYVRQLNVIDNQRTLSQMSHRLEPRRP

| SMILES | Potency |
| --- | --- |
| CCN(CC)c1ccc(/C=C(\C#N)C(=O)NCc2ccccc2)cc1 | inactive |
| Cc1ccc(NC(=O)C2(S(=O)(=O)c3ccc(Cl)cc3)CC2)c(Br)c1 | inconclusive [inhibitor, full curve] |
| O=C(O)COc1ccc(/C=C/C(=O)c2ccc3ccccc3c2)cc1 | inconclusive [inhibitor, partial curve] |
| COC(=O)C1=C(C)N(C)C(C)=C(C(=O)OC)C1c1ccc(F)c(Br)c1 | inconclusive [inhibitor, partial curve] |
| CC(=O)NC(c1cccc(F)c1)c1nc(-c2cccs2)cs1 (configuration not stated) | inconclusive [inhibitor, full curve] |
| COc1cc(OC)c(-c2c3cc(O)c(=O)cc-3oc3cc(O)c(O)cc23)cc1OC | inactive |
| Cc1oc(C2CC2)cc1C(=O)O | inconclusive [inhibitor, single point] |
| CN(Cc1ccc(C(C)(C)C)cc1)C(=O)c1ccc2c(c1)OCO2 | inconclusive [inhibitor, partial curve] |
| COc1ccc(C)cc1NC(=O)n1ncc2c(C)cccc21 | inconclusive [inhibitor, single point] |
| COc1ccc2oc(=N)c(C(=O)Nc3ccccc3)cc2c1 | inactive |
| Oc1ccc(C2=Nn3c(nnc3-c3ccco3)SC2)cc1O | inconclusive [inhibitor, single point] |
| C=CCN1C(=S)CC(c2ccccc2)=Nc2ccccc21 | inconclusive [inhibitor, partial curve] |
| O=C(O)c1ccc(Cl)c(S(=O)(=O)Nc2ccccc2C(=O)Nc2ccc(Cl)cc2)c1 | inconclusive [inhibitor, partial curve] |
| COc1ccc(C(=O)c2ccc(N(C)C)cc2)c2ccccc12 | inconclusive [inhibitor, full curve, poor fit] |
| COc1cc2c(cc1OC)C(C)N(S(=O)(=O)c1cnc(Cl)c(Cl)c1)CC2 (configuration not stated) | inconclusive [inhibitor, single point] |
| Cc1ccc(OC(F)F)c(NC(=O)Nc2cccc(C(F)(F)F)c2)c1 | inconclusive [inhibitor, full curve] |
| Cc1ccc(S(=O)(=O)N2[C@@H](CO)CO[C@H]2CC(=O)c2ccc(F)cc2)cc1 | inconclusive [inhibitor, single point] |
| CN(C)c1ccc(N=Nc2ccccc2C(=O)OCC(=O)Nc2ccccc2C(F)(F)F)cc1 | inconclusive [inhibitor, full curve, poor fit] |
| S=C1NC2=C(CCC/C2=C\c2ccc(Cl)cc2)C(c2ccc(Cl)cc2)N1 (configuration not stated) | inactive |
| CCOC(=O)C1CCCN(C(=O)C2(c3ccc(Cl)cc3)CCCC2)CC1 (configuration not stated) | inconclusive [inhibitor, partial curve] |
| CCc1ccccc1NC(=S)/N=C(\N)Nc1nc(C)c2cc(C)ccc2n1 | inconclusive [inhibitor, single point] |
| COCCNC(=O)c1ccc(-c2ccc(OC)cc2C)c2ccoc12 | inconclusive [inhibitor, full curve, poor fit] |
| CC1(Cc2cc(Cl)ccc2C(F)(F)F)C(=O)Nc2cc(F)ccc21 (configuration not stated) | inconclusive [inhibitor, partial curve] |

| SMILES | Potency |
| --- | --- |
| Oc1ccccc1C=NNC(=S)NN=Cc1ccccc1O | inactive |
| O=C(c1ccco1)N(CCC(c1ccccc1)c1ccco1)Cc1ccccc1 (configuration not stated) | inconclusive [inhibitor, partial curve] |
| COC(C(=O)Nc1ccc(Br)cc1F)c1ccccc1 (configuration not stated) | inconclusive [inhibitor, partial curve] |
| CCN(CC)c1ccc(C=C2C(=O)OC3(CCCCC3)OC2=O)cc1 | inactive |
| Cc1ccc(S(=O)(=O)N2[C@@H](c3ccc(Cl)cc3)C(C(=O)OC(C)(C)C)=CC[C@H]2c2ccc(Cl)c(Cl)c2)cc1 | inconclusive [inhibitor, single point] |
| Cc1ccc2c(c1)C(=O)C(=O)N2CCCOc1ccccc1C | inconclusive [inhibitor, partial curve] |
| Cc1cc(NC(=O)COC(=O)CCn2c(C)csc2=O)c([N+](=O)[O-])cc1C | inactive |
| CC(=O)N/C(=C/C(C)C)c1ccccc1 | inconclusive [inhibitor, partial curve] |
| Cc1cc(O)c2c(c1)CC1C3CCC4CC(=O)CCC4(C)C3CC(=O)C21C (configuration not stated) | inconclusive [inhibitor, single point] |
| COc1ccc(C(O)c2nc(-c3cc(F)cc(Cl)c3)cs2)cc1 (configuration not stated) | inconclusive [inhibitor, partial curve] |
| COc1ccc(NC(=O)Nc2nc(C)cc(C)n2)c(OC)c1 | inactive |
| CCCCn1c(N)c(N(CC(C)C)C(=O)c2cc(-c3ccc(OC)c(OC)c3)nc3ccccc23)c(=O)[nH]c1=O | inactive |
| Cc1c(C(=O)N2CCCCC2)oc2ccc(Br)cc12 | inconclusive [inhibitor, partial curve] |
| CC(C)OC(=O)C(C(=O)C(F)(F)F)c1cc(NS(=O)(=O)c2ccc3ccccc3c2)c2ccccc2c1O (configuration not stated) | inconclusive [inhibitor, full curve, poor fit] |
| O=c1[nH]c2cc(C(F)(F)F)ccc2n1-c1cc(C(F)(F)F)ccc1O | inconclusive [inhibitor, partial curve] |
| O/N=C(/CCc1ccccc1)c1ccc2c(c1)OCCO2 | inconclusive [inhibitor, single point] |
| COc1cc2c(cc1OC)C(c1ccccc1)N(C(=O)c1ccccc1F)CC2 (configuration not stated) | inconclusive [inhibitor, partial curve] |
| COc1cccc(/C=N/NC(=O)c2cccc(N3CCCC3=O)c2)c1 | inactive |
| COc1ccc(C2=CC(=O)C[C@H](c3ccc(F)cc3)C2)cc1F | inconclusive [inhibitor, single point] |
| CCC(=O)NC(c1ccc(Cl)cc1Cl)c1ccc2cccnc2c1O (configuration not stated) | inconclusive [inhibitor, full curve] |
| CCCCCCN1C[C@@H](n2cc(C3CC3)nn2)[C@H](O)C[C@@H]1c1ccc(OC)cc1 | inconclusive [inhibitor, partial curve, poor fit] |
| COc1cc2c(c3oc(=O)cc(CC(=O)O)c13)CCC(C)(C)O2 | inconclusive [inhibitor, partial curve] |
| COc1ccccc1NS(=O)(=O)c1cc(NC(=S)NCCN2CCOCC2)ccc1N1CCOCC1 | inactive |

| SMILES | Potency |
| --- | --- |
| O=C(c1cccc(S(=O)(=O)N2CCc3ccccc32)c1)N1CCCC(C(F)(F)F)C1 (configuration not stated) | inactive |
| O=C(NCc1ccccn1)c1[nH]c(C(F)(F)F)nc1-c1ccccc1 | inactive |
| Cc1cccc(-c2n[nH]nc2C2=CC(=O)CC(C)(C)C2)c1 | inactive |
| COc1ccc(C(=O)NCCc2ccccn2)cc1S(=O)(=O)Nc1ccc(Br)cc1 | inconclusive [inhibitor, single point] |
| COc1ccc(NC(=O)c2ccc(-n3cnnn3)cc2)c([N+](=O)[O-])c1 | inconclusive [inhibitor, single point] |
| O=[N+]([O-])c1ccc(S(=O)(=O)c2ccccc2)nc1 | inactive |
| COc1ccccc1N1C(=O)C2C(C(=O)c3ccccc3)=NN(c3ccc(Br)cc3)C2C1=O (configuration not stated) | active: 50.1 µM |
| O=C1CN(C(=O)NCC(=O)N[C@H](C(=O)O)c2ccccc2)c2ccccc2N1 | inconclusive [inhibitor, single point] |
| Clc1ccc(OCCn2c(-c3ccco3)nc3ccccc32)cc1 | inconclusive [inhibitor, single point] |
| Cc1ccc(NC(=O)Nc2ccc3c(c2)CCC3)cc1C | inactive |
| Cc1cc(NS(=O)(=O)c2ccc(NC(=O)C(c3ccccc3)c3ccccc3)cc2)no1 | inconclusive [inhibitor, single point] |
| COc1ccc(-c2cn[nH]c2-c2ccc(OCc3ccccc3F)cc2O)cc1OC | inconclusive [inhibitor, single point] |
| COc1ccc(C(=O)c2c(C)oc3ccc(O)cc23)cc1 | inconclusive [inhibitor, full curve] |
| CC[C@H](C)C(=O)O[C@H]1C[C@@H](C)C=C2C=C[C@H](C)[C@H](CC[C@@H]3C[C@@H](O)CC(=O)O3)[C@H]21 | inconclusive [inhibitor, partial curve] |
| O=C(COC(=O)Cn1c(C(F)(F)F)nc2ccccc21)Nc1ccc2c(c1)OCCO2 | inconclusive [inhibitor, partial curve] |
| CCNC(=S)Nc1cc(C)ccn1 | inconclusive [inhibitor, single point] |
| O=c1[nH][nH]c(C(F)(F)F)c1C=Nc1ccccc1 | inactive |
| CCN1CNC(=S)N(c2cccc(C)c2)C1 | inactive |
| N=c1c(S(=O)(=O)c2ccc(Br)cc2)cc2c(=O)n3ccccc3nc2n1C1CCCC1 | active: 79.4 µM |
| Fc1ccc(N2N=C(c3cccs3)CC2c2ccccc2)cc1 (configuration not stated) | inconclusive [inhibitor, partial curve] |
| CCc1ccc2c(c1)NC(=O)C2(C)Cc1ccc(OC(F)(F)F)cc1 (configuration not stated) | inconclusive [inhibitor, full curve] |
